Results reported in PMC10668032.
This is one part of the list. At the low end of the ranking the order means little.

molecular target: SIX1-Q177R homeodomain (UniProt Q15475); test: universal protein binding microarray; conditions: Universal all-10-mer PBM (8x60K, AMADID 030236), 300 nM GST-tagged protein, Alexa Fluor 488 anti-GST; buffer, salt, pH and temperature not stated; high values mean tight binding; most listed sequences are background and not binding sites; double strand, one strand shown

Row | Sequence | binding signal
1 | CTCTACTA | 0.0963 E-score
2 | ATAAGTCA | -0.268 E-score
3 | ATTTAACA | 0.0314 E-score
4 | ACGGCGCA | -0.0273 E-score
5 | CTAAGACA | 0.223 E-score
6 | CCAGAATC | -0.00405 E-score
7 | CCTTTCCG | 0.139 E-score
8 | CAGGGTCC | -0.0302 E-score
9 | AAAGTCAC | -0.181 E-score
10 | CTAGGCAC | -0.0297 E-score
11 | ATCTGCGG | -0.227 E-score
12 | AGCGCATG | -0.264 E-score
13 | AGCCAGCG | -0.138 E-score
14 | CGGACCGC | -0.0539 E-score
15 | AACAGAGC | -0.278 E-score
16 | CCCCCTTA | 0.145 E-score
17 | CTCTAGAA | -0.223 E-score
18 | AGGTGCTA | 0.0757 E-score
19 | ACTATCAC | -0.111 E-score
20 | CTCCCTGA | 0.0365 E-score
21 | CTCCGACC | 0.137 E-score
22 | CAGTACCG | 0.185 E-score
23 | TCTAATCA | -0.036 E-score
24 | ATGGGAAC | 0.0188 E-score

Row | Sequence | binding signal
25 | ACAGCAGA | -0.229 E-score
26 | GGCTGGAA | -0.0955 E-score
27 | ATCTGCAA | -0.141 E-score
28 | AAAAACGG | -0.00928 E-score
29 | TGACCACA | -0.175 E-score
30 | GTATAAAA | -0.00201 E-score
31 | AAATACTA | -0.104 E-score
32 | AAGAGTGC | -0.0999 E-score
33 | GGGGTTGA | 0.2 E-score
34 | TAAACGAA | -0.25 E-score
35 | ATGGCATA | -0.336 E-score
36 | CACGCGGC | 0.137 E-score
37 | CTCTATCA | -0.179 E-score
38 | CTCGGAGA | -0.0963 E-score
39 | TCACCCCA | 0.184 E-score
40 | CTGCGCTA | -0.033 E-score
41 | CTGACCAA | 0.0224 E-score
42 | GGTACGTA | 0.0836 E-score
43 | CTATGAAG | -0.0782 E-score
44 | AACAATCC | -0.104 E-score
45 | AGTTCACA | 0.0771 E-score
46 | CGTAGAGC | -0.0705 E-score
47 | AGTTTGCG | -0.0696 E-score
48 | GATAGATA | -0.109 E-score

Row | Sequence | binding signal
49 | CGTCGATA | -0.0333 E-score
50 | ATGTTCCA | -0.209 E-score
51 | CTGGTTTA | -0.0205 E-score
52 | GGGCTCCA | -0.144 E-score
53 | GAGAAATA | -0.115 E-score
54 | AAAAACGA | -0.0811 E-score
55 | AAATCGGA | -0.218 E-score
56 | AGTTTGAG | -0.0463 E-score
57 | ATATCACA | 0.126 E-score
58 | ACAGGTCT | -0.196 E-score
59 | CGCGGTGC | 0.21 E-score
60 | AATCACAT | -0.116 E-score
61 | TCACCTCA | -0.0478 E-score
62 | GTGGCAAA | -0.042 E-score
63 | CAAAGCCG | -0.114 E-score
64 | GCGCACCA | 0.136 E-score
65 | CGCCATCA | -0.135 E-score
66 | AGTGGCTA | -0.122 E-score
67 | CAAGCGGC | -0.11 E-score
68 | CTTTCTAA | -0.136 E-score
69 | AACCTTCC | -0.0229 E-score
70 | AATCTTCC | -0.222 E-score
71 | TCGGAGAA | 0.0697 E-score
72 | GCCTGTGA | -0.0117 E-score

Row | Sequence | binding signal
73 | ACCAACAA | -0.0328 E-score
74 | TCGAGGCA | -0.176 E-score
75 | TAGCTCAA | 0.0432 E-score
76 | AGCTAAAG | -0.154 E-score
77 | ACAGTTGC | -0.276 E-score
78 | CGGGGCGC | 0.00579 E-score
79 | CATATGCG | 0.0479 E-score
80 | AAGGGCTC | -0.228 E-score
81 | CAGAAGAC | -0.126 E-score
82 | GATACAGC | -0.133 E-score
83 | GAATTGGA | 0.128 E-score
84 | GCGCATCC | -0.0903 E-score
85 | GCGTATCA | 0.0725 E-score
86 | GACAAGGC | -0.0622 E-score
87 | ATATCAGG | -0.0998 E-score
88 | AAAATTAC | -0.0111 E-score
89 | CATTAGCG | -0.172 E-score
90 | ATCCCTCG | 0.142 E-score
91 | AAGTTTCC | -0.256 E-score
92 | CGACGTTA | -0.134 E-score
93 | CCATTTCC | -0.00773 E-score
94 | AAAGGGAG | 0.193 E-score
